In ChEMBL document CHEMBL4888484, “Replenishing the malaria drug discovery pipeline: Screening and hit evaluation of the MMV Hit Generation Library 1 (HGL1) against asexual blood stage Plasmodium falciparum ,using a nano luciferase reporter read-out” (2022):
About 540 (0.36%) of roughly 150,000 compounds showed an effect of 50% or more. The list shows a part of the results.

tested on: Plasmodium falciparum; assay: Primary screen in NF54 nanoGlo assay, in single point, at 2uM, 72h; a lower Z score goes with more inhibition; assay type: functional, Erythrocyte; settings: timepoint 72 hour

Compound	% Inhibition	Z score
CC1CCN(C(=O)Cn2cc(C(=O)C3CCCCC3)c3ccccc32)CC1	-5%	0.58
C[C@H]1COCCN1C(=O)NCc1nc2cccc(Cl)c2n1C	-9%	1.72
CC#CCNC(=O)N1CCN(CC(C)(C)O)C[C@@H]1C	23%	-2.91
CCCNC(=NC)NCCCc1nc(C)cs1	30%	-3.35
COc1ccc(CNC(=O)c2ccc(-n3c(C)cc4c3CC[C@H](C)C4)cc2)cc1	3%	-0.37
Cc1ccc(C)c([C@@H]2CCCN2C(=O)Cc2ccon2)c1	-8%	1.32
Cc1cc(NC(=O)c2ccco2)c(C)cc1NC(=O)c1ccco1	-11%	2.01
COc1ccc(NC(=O)N2CCC(CC3CCC(C)CC3)CC2)cc1OC (stereo unspecified)	-5%	0.9
CC(C)CN1C(=O)CC[C@@H](C(=O)NCCN2CCN(c3ccccc3F)CC2)[C@H]1C	-13%	1.74
CC(C)(C(=O)NCCOCCO)[C@H]1CCC[C@@H](C(F)(F)F)N1	-6%	0.93
CCn1cc(NC(=O)C(=O)NCc2ccc(OC)cc2)cn1	-15%	2.47
CC(C)(C)OC(=O)N1CCc2ncn(Cc3ccc(F)cc3)c(=O)c2C1	37%	-4.71
CC(C)c1nnc(CNC(=O)[C@H]2CCN(Cc3ccccc3)C2)[nH]1	1%	-0.11
Cc1nc(CCNC(=O)[C@@H]2CC[C@H](C(=O)O)C2)sc1Cl	-3%	0.4
CS(=O)(=O)N1CCN(c2ccc(-c3ccncc3)nn2)CC1	-14%	2.11
CN(C)c1ccc(CNC(=O)C2CCN(c3cncnc3N(C)C)CC2)cc1	-5%	1
O=C1C[C@H](N2C(=O)c3ccccc3C2=O)C(=O)O1	-3%	0.41
CC(C)N(C(=O)COC(=O)c1cnc(-c2ccncc2)s1)C(C)C	-8%	1.31
CC1(C)NC(=O)N(CCCN2CCCc3cc(OC(F)(F)F)ccc32)C1=O	-2%	0.23
O=C(c1ccco1)N1CCC(C(=O)N2CCCCCCC2)CC1	-6%	1.1
CC(C)Cc1ccc(C(=O)NCc2ccc3c(c2)OCO3)o1	-11%	1.87
CCn1ccnc1CNC(=O)NC1CCCC2OCCC12 (stereo unspecified)	-5%	0.59

Compound	% Inhibition	Z score
CC(C)(CO)NS(=O)(=O)c1c(Br)cc(F)cc1Br	-11%	1.71
O=C(c1ccc(F)cc1)N1CCC2(CC1)N(Cc1cccc(F)c1)C(=O)C[S@+]2[O-]	-4%	0.71
CC1CCCC2(C1)OCC(C(=O)N1CCN(C)CC1)N2C(=O)c1ccccc1F (stereo unspecified)	-11%	1.51
CC(C)N(CC(N)=O)Cc1ccccc1Br	-5%	0.52
O=C(c1cc2ccccc2[nH]1)N1CCc2[nH]cnc2C1	-5%	0.95
CCn1c(=O)c(N2CCN(C(=O)COc3ccc(Cl)cc3C)CC2)nc2ccncc21	-17%	1.62
COc1ccc(-c2ccc(=O)n(CN3CCN(Cc4ccccc4)CC3)n2)cc1OC	7%	-0.84
CCOc1ccc(Cl)cc1-c1cc(C)n[nH]c1=O	-8%	1.52
O=C1C2ON=C(c3cccnc3)C2C(=O)N1c1cc(Cl)cc(Cl)c1 (stereo unspecified)	2%	-0.28
O=C(Nc1nccs1)N1CC(O)CC1CO (stereo unspecified)	34%	-4.86
O=C(Nc1ccccc1F)c1oc2ccccc2c1NC(=O)c1cccc2ccccc12	-3%	0.5
CCC[C@@H](C(=O)N1CC2(CCOCC2)C1)c1ccccn1	-23%	2.5
O=S1(=O)N=C(NCCNC2=NS(=O)(=O)c3ccccc32)c2ccccc21	35%	-3.99
CCC(=O)NCCc1csc(C2CCN(C(=O)c3ccc4ccccc4n3)CC2)n1	-2%	0.2
Cc1cnc(-n2ncc(C(=O)N3CCN(C4CCCCC4)CC3)c2C2CC2)nc1-c1cccs1	-4%	0.86
Cc1nc2ncc(-c3cccc(N(C)C)c3)cc2[nH]1	-17%	1.53
CC1CC(C)CN(S(=O)(=O)NC2CN(C(=O)OC(C)(C)C)C2)C1 (stereo unspecified)	-15%	1.45
COCC1(CNC(=O)C2(C)CCN(C)CC2)CCCC1	-10%	1.75
O=C(Nc1ccc(CCc2nc3ccccc3[nH]2)cc1)c1ccccc1	-17%	1.72
Cc1csc(N2CCC[C@H](C(=O)c3ccccc3)C2)n1	-21%	1.91
CC(C)CN(CC(=O)N(Cc1cccn1Cc1ccccc1Cl)C1CCCCC1)C(=O)c1cccc2ccccc12	4%	-0.69
